The whole screen tested about 310,000 compounds, of which about 2,200 (0.71%) showed an effect of 50% or more. The effect is printed as a negative number. The list shows a part of the results.
biological target: human ether-à-go-go-related gene (hERG) potassium channel (human, UniProt Q12809); test: primary screen, population patch clamp on CHO cells stably expressing hERG
Sequence (Q12809 whole entry, looked up): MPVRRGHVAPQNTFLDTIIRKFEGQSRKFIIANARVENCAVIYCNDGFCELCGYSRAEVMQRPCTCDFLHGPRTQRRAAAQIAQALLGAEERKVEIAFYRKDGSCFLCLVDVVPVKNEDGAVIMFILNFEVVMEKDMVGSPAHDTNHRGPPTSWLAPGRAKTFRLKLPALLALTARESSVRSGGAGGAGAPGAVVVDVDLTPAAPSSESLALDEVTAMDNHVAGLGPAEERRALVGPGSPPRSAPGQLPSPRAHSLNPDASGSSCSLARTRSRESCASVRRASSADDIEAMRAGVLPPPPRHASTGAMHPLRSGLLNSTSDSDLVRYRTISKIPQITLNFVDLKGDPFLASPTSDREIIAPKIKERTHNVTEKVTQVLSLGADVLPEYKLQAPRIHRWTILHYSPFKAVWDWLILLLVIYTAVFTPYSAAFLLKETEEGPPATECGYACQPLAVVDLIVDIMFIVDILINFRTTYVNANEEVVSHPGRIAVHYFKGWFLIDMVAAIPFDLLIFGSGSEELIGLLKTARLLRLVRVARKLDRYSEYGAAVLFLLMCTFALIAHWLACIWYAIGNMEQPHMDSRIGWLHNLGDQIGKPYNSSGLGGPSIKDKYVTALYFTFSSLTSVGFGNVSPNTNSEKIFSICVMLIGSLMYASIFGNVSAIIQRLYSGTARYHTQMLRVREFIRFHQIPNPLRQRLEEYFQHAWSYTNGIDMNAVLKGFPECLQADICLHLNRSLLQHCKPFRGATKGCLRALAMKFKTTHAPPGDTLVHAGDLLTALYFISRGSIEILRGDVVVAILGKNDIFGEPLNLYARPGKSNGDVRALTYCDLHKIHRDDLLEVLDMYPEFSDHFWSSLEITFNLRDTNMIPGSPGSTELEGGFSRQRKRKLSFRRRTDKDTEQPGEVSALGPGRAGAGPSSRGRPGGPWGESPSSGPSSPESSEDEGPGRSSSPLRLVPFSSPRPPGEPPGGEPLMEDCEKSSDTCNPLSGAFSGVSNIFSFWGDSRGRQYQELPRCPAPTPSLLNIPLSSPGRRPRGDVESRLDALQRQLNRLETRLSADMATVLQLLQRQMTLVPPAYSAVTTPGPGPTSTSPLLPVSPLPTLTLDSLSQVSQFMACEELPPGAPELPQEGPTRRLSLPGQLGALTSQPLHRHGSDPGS

| Compound | hERG current change (%, negative = inhibition) at 1uM |
| --- | --- |
| Cc1cccc(NC(=O)Cn2cccc2)c1 | 6.74% |
| O=C(CSc1nc(-c2ccco2)cc(C(F)(F)F)n1)Nc1ccccc1C(F)(F)F | -2.77% |
| COc1ccc(S(=O)(=O)N2CCCOC2CNC(=O)C(=O)NCCCN2CCOCC2)cc1C (stereo not shown) | 13.5% |
| CC(CNC(=O)COC(=O)c1ccco1)c1ccccc1 (stereo not shown) | 6.17% |
| CC(Oc1ccc(Cl)cc1Cl)C(=O)NNC(=O)c1ccncc1 (stereo not shown) | -0.0897% |
| CSc1cccc(NS(=O)(=O)c2ccccc2)c1 | 10.3% |
| CC1CCN(C(=O)CSc2nnc(Cc3cc(=O)[nH]c(=O)[nH]3)n2-c2ccc(Cl)cc2)CC1 | 6.13% |
| COc1cccc(N(C(=O)c2sc(C)nc2C)C(C(=O)NCC2CCCO2)c2ccccc2)c1 (stereo not shown) | 8.09% |
| CSCCC(NC(=O)c1ccc([N+](=O)[O-])cc1Cl)C(=O)OCC(=O)NCC(F)(F)F (stereo not shown) | 1.6% |
| O=C(N/N=C/c1c[nH]c2ccccc12)c1ccc(Br)cc1 | 8.89% |
| Cc1ccccc1-n1c(C)nnc1SCC(=O)NNC(=O)c1ccccc1 | 9.37% |
| CSc1nncc(-c2ccccc2)n1 | 4.91% |
| CCN(Cc1ccc(OC)c(F)c1)C(=O)/C=C/c1ccc(S(=O)(=O)N2CCOCC2)cc1 | 0.639% |
| COc1cc(C(=O)OCC(=O)Nc2cccc(S(=O)(=O)N3CCOCC3)c2)ccc1OCC(C)C | 8.06% |
| COC(=O)COc1ccc(-c2nccc(-c3ccc(Br)cc3)n2)cc1 | 3.66% |
| CCOC(=O)N1CCN(S(=O)(=O)Cc2ccccc2)CC1 | 13.8% |
| CC(C)c1ccc(OCC(=O)N2CCc3ccccc3C2)cc1 | 13.4% |
| COc1ccc(/C=C2\SC(=S)N(CCC(=O)N3CCCCC3CCO)C2=O)cc1 (stereo not shown) | 13.2% |
| Cc1ccc(S(=O)(=O)N2CCC(C(=O)N[C@@H](C)C(=O)Nc3ccc4c(c3)OCO4)CC2)cc1 | -6.05% |
| C/C(=N\NC(=S)NC1CCCCC1)c1c(F)cccc1F | 13.3% |
| Oc1c(C=C2N=c3ccccc3=N2)sc(=S)n1C1CCCCC1 [17433500] | 7.92% |
| O=S(=O)(NCCc1ccc2c(c1)OCCO2)c1cccs1 | 3.03% |
| COc1cccc(CN2C(=O)[C@@H]3Cc4c([nH]c5ccccc45)C(C)(C)N3C2=O)c1 | 9.97% |
| COc1cccc(C2CC(c3cccc(NS(C)(=O)=O)c3)=NN2C(=O)c2ccccc2)c1OC (stereo not shown) | -5.58% |
| NS(=O)(=O)c1cc(C(=O)Nc2ccc3c(c2)OCCCO3)ccc1Cl | 14.7% |
| CCOC(=O)CNC(c1ccccc1)c1cc(Br)ccc1NC(=O)OCC (stereo not shown) | 11.3% |
| COc1ccc(OC)c(NC(=O)CCC(=O)N(Cc2ccc(OC)c(OC)c2)c2nccs2)c1 | 11.6% |
| COc1cc(/C=C(/NC(=O)c2ccccc2)C(=O)N2CCN(C)CC2)c([N+](=O)[O-])cc1OC | 2.75% |

| Compound | hERG current change (%, negative = inhibition) at 1uM |
| --- | --- |
| CCN(C(=O)COC(=O)c1ccc2ccccc2c1)c1c(N)n(Cc2ccccc2)c(=O)[nH]c1=O | 9.57% |
| CC(C)CN(C(=O)COc1ccc(C(C)(C)C)cc1)C1CCS(=O)(=O)C1 (stereo not shown) | 5.69% |
| C=C1CCN([C@H](C(=O)NCc2ccccc2)C(C)C)S(=O)(=O)c2ccccc21 | 7.82% |
| O=C1C2CC=CCC2C(=O)N1c1ccc(Cc2ccncc2)cc1 (stereo not shown) | -20.5% |
| CC1(C)Cc2c(C#N)c(SCCO)nc(N3CCOCC3)c2CO1 | 11.9% |
| CCOc1ccc2c(c1)nc(C)n2C | 13.1% |
| C[n+]1cn(Cc2cc(Cl)ccc2OC(F)F)c2ccccc21.[Br-] | 2.86% |
| COc1ccc(/C(C)=N/OC/C(O)=C(\C#N)c2nc3ccccc3[nH]2)cc1OC | 2.18% |
| COc1ccccc1NC(=O)NCC(=O)Nc1c(C)cccc1C | 21.3% |
| Cc1c(C(=O)NCCSCc2ccco2)cccc1[N+](=O)[O-] | 9.46% |
| CCOc1ccc(-n2c(O)c(N=Nc3ccc([N+](=O)[O-])cc3)c(=O)[nH]c2=O)cc1 | 16% |
| COc1cc(S(=O)(=O)N2CCCCC2)ccc1NC(C)=O | -6.87% |
| COc1ccc(C2(CNC(=O)c3ccco3)CCOCC2)cc1 | 4.35% |
| Cc1c(CN(C)CCc2ccccc2)c(=O)n(-c2ccccc2)n1C | 9.12% |
| CCC(=O)N(c1nnc(SCC(=O)NN2C(=O)NC3(CCCCC3)C2=O)s1)C1CC1 | 5.45% |
| COc1cc2c(cc1OC)C(c1ccc(Br)cc1)NC(=O)C2 (stereo not shown) | 14.7% |
| COC(=O)/C=C1/N/C(=N\c2nc(C)cc(C)n2)N(c2ccc(Cl)cc2)C1=O | 12.5% |
| CCCCNC(=O)CSc1nnc(NC(C)=O)s1 | 2.62% |
| CN1CCC(=C2c3ccccc3C(O)c3ccccc32)CC1 (stereo not shown) | 9.82% |
| CCOc1ccc(CN(C)CC(=O)Nc2ccc(N3CCOCC3)cc2)cc1OC | -2.31% |
| CCN(CC)Cc1c(C(=O)N/N=C/c2ccccn2)nnn1-c1nonc1N | -5.44% |
| CCNC(=O)NC(=O)C(C)OC(=O)c1cc(S(=O)(=O)N2CCCCCC2)ccc1OC (stereo not shown) | 3.17% |
| NC(C(=O)O)C(c1ccccc1)C(F)F (stereo not shown) | 16.9% |
| CSc1ccc(NC(=O)NCc2ccccc2)cc1 | 17.9% |
| CCC1CCCCN1C(=O)NC(=O)c1ccccc1 (stereo not shown) | 24.9% |
| COc1ccccc1NC(=O)/C(=C\c1cccs1)NC(=O)c1ccco1 | 7.99% |
| Cc1c(NC(=O)CCCCCN2C(=O)c3ccccc3C2=O)c(=O)n(-c2ccccc2)n1C | 9.37% |
